Assay results as given in publication PMC4336329 (PLoS ONE, 2015).
About 14,000 (4.5%) of roughly 310,000 compounds showed an effect of 50% or more. Effects have a minus sign here. Some of the results follow.

target: human ether-à-go-go-related gene (hERG) potassium channel (human, UniProt Q12809); assay: primary screen, population patch clamp on CHO cells stably expressing hERG
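Further: peak tail current of the secondary pulse compared with the same well before compound.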

Sequence of human ether-à-go-go-related gene (hERG) potassium channel (Q12809 whole entry, looked up): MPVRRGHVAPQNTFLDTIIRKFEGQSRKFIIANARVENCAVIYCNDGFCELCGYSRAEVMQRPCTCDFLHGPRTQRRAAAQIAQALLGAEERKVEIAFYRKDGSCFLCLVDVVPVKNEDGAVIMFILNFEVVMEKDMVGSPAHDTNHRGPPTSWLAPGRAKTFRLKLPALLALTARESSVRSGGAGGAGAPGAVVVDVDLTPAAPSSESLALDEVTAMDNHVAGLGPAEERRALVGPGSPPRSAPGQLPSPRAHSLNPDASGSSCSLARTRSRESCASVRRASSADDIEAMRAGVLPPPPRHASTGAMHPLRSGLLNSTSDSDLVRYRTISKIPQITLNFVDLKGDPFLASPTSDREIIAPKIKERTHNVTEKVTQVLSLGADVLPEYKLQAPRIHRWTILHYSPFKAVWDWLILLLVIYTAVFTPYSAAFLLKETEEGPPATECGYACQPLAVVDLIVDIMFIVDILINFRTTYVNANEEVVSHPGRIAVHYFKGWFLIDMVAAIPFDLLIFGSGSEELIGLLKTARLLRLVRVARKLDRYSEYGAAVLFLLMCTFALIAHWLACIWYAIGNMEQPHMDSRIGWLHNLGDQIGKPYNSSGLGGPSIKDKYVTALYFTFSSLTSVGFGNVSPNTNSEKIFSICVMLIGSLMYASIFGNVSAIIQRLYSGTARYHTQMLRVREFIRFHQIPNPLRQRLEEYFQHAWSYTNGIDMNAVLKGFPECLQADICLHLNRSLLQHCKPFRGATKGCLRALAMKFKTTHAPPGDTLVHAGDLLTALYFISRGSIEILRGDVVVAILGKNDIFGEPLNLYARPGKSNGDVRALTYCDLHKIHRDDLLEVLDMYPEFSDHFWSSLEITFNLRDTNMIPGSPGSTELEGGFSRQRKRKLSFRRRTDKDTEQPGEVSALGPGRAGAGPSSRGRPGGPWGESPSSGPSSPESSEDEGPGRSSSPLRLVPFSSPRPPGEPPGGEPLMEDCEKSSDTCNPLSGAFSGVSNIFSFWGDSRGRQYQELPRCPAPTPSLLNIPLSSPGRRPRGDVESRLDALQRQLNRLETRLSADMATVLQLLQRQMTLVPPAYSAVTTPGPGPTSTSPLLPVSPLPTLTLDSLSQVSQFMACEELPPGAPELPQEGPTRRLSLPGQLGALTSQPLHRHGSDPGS

Row | Compound | hERG current change (%, negative = inhibition) at 10uM [%]
1 | CCOC(=O)c1ccc(NC(=O)CCC(=O)OC)cc1 | 15.4
2 | CC(NS(=O)(=O)c1ccc(OCC(=O)Nc2cccc([N+](=O)[O-])c2)cc1)c1ccccc1 (stereo not shown) | 3.21
3 | CCCNC(=O)C(=O)NCc1ccccn1 | 7.92
4 | Cc1ccccc1S(=O)(=O)Nc1ncnc2scc(-c3ccccc3)c12 | -19.3
5 | O=C(CCN1C(=O)c2ccccc2C1=O)C1=NN[C@@H]2C(=O)N(c3ccc4c(c3)OCO4)C(=O)[C@H]12 | -7.14
6 | Cc1cc(OC(C)C(=O)NCCCn2ccnc2)c2c(C)cc(=O)oc2c1 (stereo not shown) | -15.4
7 | COc1ccc(C[C@@H]2CN3C(=NC[C@@H]3C)N2CCNC(=O)c2ccc(C)c(Br)c2)cc1 | -71.4
8 | O=C(Oc1ccccc1C(=O)Nc1ccccc1)c1ccc(Br)c([N+](=O)[O-])c1 | 6.7
9 | O=C(c1ccc(COc2ccccc2Br)cc1)N1CCCCCC1 | 12.6
10 | Cc1ccc(-c2cc(C(=O)OCC(=O)Nc3ncc(C(F)(F)F)cc3Cl)c3ccccc3n2)cc1 | 6.23
11 | Cc1[nH]c2ccc(F)cc2c1CCNC(=O)C1CCCCC1C(=O)OCC(F)(F)F (stereo not shown) | -18.7
12 | O=C(COC(=O)c1cc(-c2ccccc2)nc2ccccc12)Nc1ccc2c(c1)OCO2 | 10.7
13 | Cn1c(=NC(=O)CCl)sc2ccccc21 | -12.6
14 | COc1ccc(N2C(=O)C(Cl)=C(N3CCOCC3)C2=O)cc1 | 9.43
15 | C=CCn1c(SCCOc2ccc(OC)cc2)nnc1C(C)NC(=O)Cc1ccc(OC)cc1 (stereo not shown) | -28
16 | CN1C(C(=O)NCc2ccccc2)CC2Cn3c(nc4cc5ccccc5cc43)C21 (stereo not shown) | -67.9
17 | CCOc1ccc(/C=N/NC(=O)COc2ccccc2-c2ccccc2)cc1 | 3.13
18 | COc1cccc(SCc2noc(C(=O)NCc3ccccc3)c2C(=O)NCc2ccccc2)c1 | 20.2
19 | Cc1cc2c(=O)n(C)c(SCC(=O)NC3CCCC3)nc2s1 | 5.07
20 | Cc1ccc(C(=O)CSc2nc3ccc(C(=O)NCCN4CCCCC4)cc3c(=O)[nH]2)cc1 | 9.56
21 | CC(=O)Nc1c(O)n(C)c2ccccc12 | 13.6
22 | COC(=O)C(O)(c1ccc(N(C)C(=O)c2ccc(Cl)c(Cl)c2)cc1)C(F)(F)F (stereo not shown) | -1.31

Row | Compound | hERG current change (%, negative = inhibition) at 10uM [%]
23 | Cc1ccccc1CN1CCN(c2ccc(Cl)cc2)CC1 | 7.72
24 | c1cc(CCCc2ccncc2)ccn1 | -18.5
25 | CN1CCC(N(C)S(=O)(=O)c2ccc(C(C)(C)C)cc2)CC1.Cl | -33.3
26 | COC(=O)CSc1nc2c(c(=O)n(C)c(=O)n2C)n1CCC(C)C | -5.54
27 | Cc1ccc(S(=O)(=O)c2nnn3c2nc(Nc2cccc(C)c2)c2ccccc23)cc1 | 17.2
28 | COc1ccc(N2CCN(C(=O)COc3ccccc3)CC2)cc1 | -20.6
29 | O=C(c1nc2ccc(Cl)cn2c1CNCCc1cnccn1)N1CCCCCCC1 | -8.1
30 | Cl.O=S(=O)(c1ccccc1)N(CC(O)CN1CCCCC1)c1ccccc1 (stereo not shown) | -53.2
31 | Oc1[nH]c2ccccc2c1/C=N/c1nccs1 | 4.65
32 | CN1CCN(C(=O)/C(=C/c2cccs2)NC(=O)c2ccco2)CC1 | -70.5
33 | O=S(=O)(c1ccc(S(=O)(=O)N2CCCC2)cc1)N1CCCCCC1 | 7.43
34 | Cc1cc(C)n(C(=O)c2cccc(S(=O)(=O)N3CCOCC3)c2)n1 | 8.76
35 | CSCC[C@H](NC(=O)NCCC1=CCCCC1)C(=O)O | -13.8
36 | COc1ccc2nc(NC(=O)CS(=O)(=O)c3ccc(C)cc3)sc2c1 | 12.6
37 | Cc1ccccc1NC(=O)c1ccc(Cl)c(NC(=O)c2ccncc2)c1 | -32.1
38 | CC(C)(C)OC(=O)NCc1ccc(CNC(=O)c2[nH]cnc2C(=O)NC2CCN(C(=O)OC(C)(C)C)CC2)cc1 | -2.61
39 | O=C(Nc1nc(-c2ccccn2)cs1)c1ccco1 | -6.74
40 | CN1CCN(CCC(=O)N/N=C/c2cc([N+](=O)[O-])ccc2O)CC1 | 1.18
41 | S=C(Nc1ccc(Cl)cc1Cl)Nc1ccccc1Oc1ccccc1 | 13.6
42 | CCN(CC)c1nc2c(c(=O)n(C)c(=O)n2C)n1CC(=O)c1ccccc1 | -14.9
43 | CC(C)OC(=O)CSc1nnc(-c2ccccc2)n1N | 9.92
